About 100 (0.036%) of roughly 280,000 compounds were called active. Inconclusive results, whose numbers are uncertain, are shown with a selection of clear calls. Calls follow the shape of the dose curve; as a rule, active = well fitted inhibition curve with a large enough effect in the signal ratio, with a control signal flat (not every such curve was filed as active); inconclusive = small, poorly fitted or top-dose-only effect, or effect the other way, or a change in a side signal; inactive = no such curve, though single readings can be large or run the other way; the % refers to the signal ratio. Where the call is inconclusive, the potency comes from a doubtful curve fit. “Side channel” marks fits to a control or component signal instead of the main read-out.
These molecules were tested against Muscleblind-like protein 1 (Homo sapiens) (UniProt Q9NR56) (assay: qHTS Assay for Inhibitors of MBNL1-poly(CUG) RNA binding). Settings: TR-FRET MBNL1-His/biotin-(CUG)12 binding, 665/545 ratio; activity change, negative = inhibition: at 57.5 µM (top of the series).
Outline: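 Inhibition of protein-RNA binding appears as loss of TR-FRET between terbium anti-His antibody on MBNL1-His and streptavidin-XL665 on biotin-(CUG)12. Activity is normalized to buffer-only and uninhibited-complex controls.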
% is scaled to controls: 0 for no effect and ±100 for the full control effect; potency is read from the fitted curve at half-maximal effect; tags tell the direction and shape of the fitted curve or compound fluorescence and quenching.

Sequence of UniProt Q9NR56 (Q9NR56 whole entry, looked up): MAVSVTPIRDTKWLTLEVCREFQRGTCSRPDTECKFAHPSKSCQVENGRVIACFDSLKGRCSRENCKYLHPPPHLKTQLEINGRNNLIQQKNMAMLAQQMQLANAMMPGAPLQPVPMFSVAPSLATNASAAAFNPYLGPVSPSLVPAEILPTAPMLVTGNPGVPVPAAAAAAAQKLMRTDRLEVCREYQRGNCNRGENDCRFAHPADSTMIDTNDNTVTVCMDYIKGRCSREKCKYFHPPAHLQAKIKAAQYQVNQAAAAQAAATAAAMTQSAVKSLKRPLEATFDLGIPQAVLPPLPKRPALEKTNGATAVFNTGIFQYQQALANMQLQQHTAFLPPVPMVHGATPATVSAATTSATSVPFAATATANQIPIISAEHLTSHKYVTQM

**Q.** For `COc1ccccc1CNC(=O)c1cc(-c2cccnc2)nc2ccccc12`, which Potency is on record?
**A.** The Potency was inconclusive: 15.8 µM [quencher, side channel, partial curve].

**Q.** For `O=C(c1ccc(N2CCN(C3CC(=O)N(Cc4cccs4)C3=O)CC2)cc1)c1cccnc1` (stereo unspecified), which Potency is on record?
**A.** The Potency was inconclusive: 20 µM [quencher, side channel, partial curve].

**Q.** `Cc1ccc(-c2[nH]ncc2/C=C(\C#N)C(=O)NC2CCCCC2)cc1` was tested. Which Potency did it give?
**A.** The Potency was inconclusive: 12.6 µM [quencher, side channel, partial curve].

**Q.** For `C/C(=N\NC(=O)C1CC1)c1cccc(NC(=O)c2cccc(Cl)c2)c1`, which Potency is on record?
**A.** The Potency was inconclusive: 0.708 µM [fluorescent, side channel, single point].

**Q.** For `CCCCC1=CC2=CC(=O)C(C)(OC(=O)CC)C(=O)C2=CN1C1CCCCC1` (stereo unspecified), which Potency is on record?
**A.** The Potency was inconclusive: 28.2 µM [quencher, side channel, single point].

**Q.** Which Potency does the source give for `Cn1cc(/C=C(\NC(=O)c2ccccc2)C(=O)NCCCN2CCOCC2)c2ccccc21` here?
**A.** Its Potency is inconclusive: 25.1 µM [quencher, side channel, single point].

**Q.** With `C[N+](C)(C)CCNC(=O)c1cc[n+](Cc2ccccc2)c(/C=N/O)c1` as the molecule, how does the Potency read?
**A.** Its Potency is inconclusive: 11.2 µM [quencher, side channel, partial curve].

**Q.** Which “activity change, negative = inhibition” value does the source give for `NS(=O)(=O)c1ccc(CCNC(=O)CSc2nc3ccsc3c(=O)n2CCCCCC(=O)O)cc1` here?
**A.** Its value is inactive: -11.8%.

**Q.** Which Potency does the source give for `Cc1ccc(C(=O)c2cc([N+](=O)[O-])ccc2N2CCN(C)CC2)cc1` here?
**A.** Its Potency is inconclusive: 15.8 µM [quencher, side channel, partial curve].

**Q.** For `Cc1cc(O)c(C(C)C)cc1N=Nc1ccccc1C(=O)O`, which Potency is on record?
**A.** Its Potency is inconclusive: 25.1 µM [quencher, single point].

**Q.** With `Cc1ccc([N+](=O)[O-])cc1N(CC(=O)NCC1CCCO1)S(C)(=O)=O` (stereo unspecified) as the molecule, how does the Potency read?
**A.** Its Potency is inconclusive: 14.1 µM [quencher, side channel, partial curve].

**Q.** Which Potency does the source give for `O=C(Nc1c(C(=O)C2CC2)oc2ccccc12)c1ccc(Cl)cc1` here?
**A.** Its Potency is inconclusive: 0.794 µM [fluorescent, side channel, partial curve].

**Q.** Which Potency does the source give for `CCCCOc1ccc([N+](=O)[O-])cc1C(=O)O` here?
**A.** Its Potency is inconclusive: 14.1 µM [quencher, side channel, partial curve].

**Q.** With `CCC(C)n1cnc2c(c1=O)c1nc3ccccc3nc1n2Cc1ccc2c(c1)OCO2` (stereo unspecified) as the molecule, how does the Potency read?
**A.** The Potency was inconclusive: 14.1 µM [quencher, side channel, partial curve].

**Q.** How did the Potency turn out when `COc1ccc(N2CCN(C(C)=C3C(=O)c4ccccc4C3=O)CC2)cc1` was run?
**A.** The Potency was inconclusive: 5.62 µM [quencher, side channel, full curve].

**Q.** `Cn1ccnc1SCc1cccc([N+](=O)[O-])c1` was tested. Which Potency did it give?
**A.** The Potency was inconclusive: 15.8 µM [quencher, partial curve].

**Q.** How did the “activity change, negative = inhibition” value turn out when `COc1ccc(CC(=O)Nc2nc(-c3ccc(F)c(F)c3)cs2)cc1` was run?
**A.** Its value is inactive: -6.37%.

**Q.** How did the Potency turn out when `O=C1C(=O)N(c2cccc(Cl)c2)C(c2ccccc2[N+](=O)[O-])/C1=C(\O)c1ccccc1` (stereo unspecified) was run?
**A.** Its Potency is inconclusive: 25.1 µM [quencher, side channel, partial curve].

**Q.** Which Potency does the source give for `CC(=O)c1ccc(NC(=O)C(C)OC(=O)c2ccc(NS(=O)(=O)c3ccc(F)c(F)c3)cc2)cc1` (stereo unspecified) here?
**A.** The Potency was inconclusive: 0.708 µM [quencher, side channel, full curve, poor fit].

**Q.** With `O=C(NCc1cccc(Br)c1)C1CC(c2ccccc2C(F)(F)F)=NO1` (stereo unspecified) as the molecule, how does the “activity change, negative = inhibition” value read?
**A.** Its value is inactive: 0.318%.

**Q.** For `CC(=O)Nc1c(C)nn(-c2ccc([N+](=O)[O-])cc2)c1C`, which “activity change, negative = inhibition” value is on record?
**A.** Its value is inactive: -4.13%.

**Q.** With `Cc1ccc2[nH]c(=O)c3cc(C(=O)N(C)Cc4ccco4)sc3c2c1` as the molecule, how does the Potency read?
**A.** Its Potency is inconclusive: 22.4 µM [quencher, partial curve, poor fit].

**Q.** How did the “activity change, negative = inhibition” value turn out when `COc1ccc(-n2cc(-c3ccc(OC)c(OC)c3)[nH]c2=S)cc1` was run?
**A.** Its value is inactive: 83.4%.

**Q.** `CCOc1ccc(CCNS(=O)(=O)c2cccc3nsnc23)cc1OCC` was tested. Which Potency did it give?
**A.** The Potency was inconclusive: 12.6 µM [quencher, side channel, partial curve].

**Q.** For `COc1ccc(-n2nc([N+](=O)[O-])c(=NCCCN3CCCC3=O)n2O)cc1`, which Potency is on record?
**A.** The Potency was inconclusive: 12.6 µM [quencher, side channel, partial curve].

**Q.** How did the “activity change, negative = inhibition” value turn out when `COc1ccc(C)cc1Nc1nc(C)nc2sc(C)cc12` was run?
**A.** Its value is inactive: -6.74%.

**Q.** `CCCN(CCC)C(=O)C1CCCN1S(=O)(=O)c1cccc2nsnc12` (stereo unspecified) was tested. Which Potency did it give?
**A.** The Potency was inconclusive: 28.2 µM [quencher, side channel, partial curve].

**Q.** Which Potency does the source give for `CCCNC(=O)CN(c1ccccc1)S(=O)(=O)c1ccc(OC)c(OC)c1` here?
**A.** The Potency was inconclusive: 63.1 µM [inhibitor, single point].

**Q.** How did the “activity change, negative = inhibition” value turn out when `COc1ccc2cc(-c3[nH]ncc3CN3CCCN(c4ccccc4)CC3)ccc2c1` was run?
**A.** Its value is inactive: 10.8%.

**Q.** For `c1ccc(Cn2nnnc2C(c2cccnc2)N2CCN(C3CCCCC3)CC2)cc1` (stereo unspecified), which Potency is on record?
**A.** Its Potency is inconclusive: 0.708 µM [quencher, side channel, single point].

**Q.** Which Potency does the source give for `COc1ccc(C2C(C#N)=C(N)Oc3cc(C)n(Cc4ccco4)c(=O)c32)cc1` (stereo unspecified) here?
**A.** Its Potency is inconclusive: 25.1 µM [quencher, side channel, single point].

**Q.** How did the “activity change, negative = inhibition” value turn out when `CCc1ccc(NC(=O)Nn2cnnc2)cc1` was run?
**A.** Its value is inactive: -15%.

**Q.** `CN(Cc1ccccc1)C(=O)C1CCN(S(=O)(=O)c2cccc3nsnc23)CC1` was tested. Which Potency did it give?
**A.** Its Potency is inconclusive: 7.08 µM [quencher, side channel, single point].

**Q.** How did the Potency turn out when `CN(C)c1ccc(/C=N/NC(=O)c2ccccc2Cl)cc1` was run?
**A.** The Potency was inconclusive: 22.4 µM [quencher, side channel, single point].

**Q.** How did the Potency turn out when `Clc1cccc(-c2ccc(C=Nc3ccc(N4CCOCC4)cc3)o2)c1Cl` was run?
**A.** Its Potency is inconclusive: 31.6 µM [quencher, side channel, partial curve].

**Q.** How did the “activity change, negative = inhibition” value turn out when `O=C(c1cccs1)N1N=C(c2ccccc2)CC1c1ccccc1` (stereo unspecified) was run?
**A.** Its value is inactive: 1.87%.

**Q.** `COc1ccc(N2CCCC2)c(NC(=O)c2ccc([N+](=O)[O-])o2)c1` was tested. Which Potency did it give?
**A.** The Potency was inconclusive: 10 µM [quencher, side channel, partial curve].

**Q.** How did the Potency turn out when `Cc1ccccc1C(=O)N1CCc2cc(-c3nc(NC(=O)Cc4ccc5c(c4)OCO5)sc3C)ccc21` was run?
**A.** The Potency was inconclusive: 11.2 µM [fluorescent, side channel, partial curve, poor fit].

**Q.** For `COc1ccccc1OCC(=O)Nc1nc(C)c(C)s1`, which “activity change, negative = inhibition” value is on record?
**A.** Its value is inactive: 2.21%.

**Q.** How did the Potency turn out when `CC1CCCCN1c1cc(C#N)c(C#N)cc1[N+](=O)[O-]` (stereo unspecified) was run?
**A.** Its Potency is inconclusive: 3.98 µM [quencher, side channel, full curve, poor fit].

**Q.** How did the “activity change, negative = inhibition” value turn out when `CC(=O)N1CC(C)Sc2ccc(S(=O)(=O)N3CCCCC3)cc21` (stereo unspecified) was run?
**A.** Its value is inactive: 0.169%.

**Q.** `Cc1cc(C(=O)NP(=O)(N2CC(C)OC(C)C2)N2CC(C)OC(C)C2)c(C)n1C1CC1` (stereo unspecified) was tested. Which “activity change, negative = inhibition” value did it give?
**A.** The value was inactive: 3.37%.

**Q.** `CCn1cc(CNC(=O)c2ccc(Cl)c([N+](=O)[O-])c2)c(C)n1` was tested. Which Potency did it give?
**A.** The Potency was inconclusive: 1.12 µM [quencher, side channel, single point].

**Q.** With `COc1ccccc1Cn1c(CCCO)nc2ccccc21` as the molecule, how does the “activity change, negative = inhibition” value read?
**A.** Its value is inactive: -3.34%.

**Q.** With `COc1cc(C(=O)OCC(=O)NC2CCS(=O)(=O)C2)c([N+](=O)[O-])cc1OC` (stereo unspecified) as the molecule, how does the Potency read?
**A.** Its Potency is inconclusive: 15.8 µM [quencher, side channel, partial curve].

**Q.** With `COc1ccc(C)cc1NC(=O)CSc1ccc(-c2ccccn2)nn1` as the molecule, how does the “activity change, negative = inhibition” value read?
**A.** The value was inactive: 0.129%.

**Q.** For `O=C(NC(=S)Nc1cccc([N+](=O)[O-])c1)C1CCCC1`, which Potency is on record?
**A.** The Potency was inconclusive: 17.8 µM [quencher, partial curve].

**Q.** Which Potency does the source give for `CC(=O)Nc1cc(-c2ccccc2)nn1Cc1ccc(Cl)cc1` here?
**A.** The Potency was inconclusive: 15.8 µM [quencher, side channel, partial curve].

**Q.** For `O=C(/C=C/c1cccc([N+](=O)[O-])c1)NCCN1CCOCC1`, which Potency is on record?
**A.** Its Potency is inconclusive: 14.1 µM [quencher, side channel, partial curve].

**Q.** How did the Potency turn out when `C=CCn1c(C)cc(C(=O)COC(=O)[C@@H](NC(=O)c2ccccc2Cl)C(C)C)c1C` was run?
**A.** The Potency was inconclusive: 0.316 µM [fluorescent, side channel, partial curve].

**Q.** For `COc1ccccc1C1NC=C([N+](=O)[O-])C=C1[N+](=O)[O-]` (stereo unspecified), which Potency is on record?
**A.** Its Potency is inconclusive: 11.2 µM [quencher, side channel, partial curve].

**Q.** How did the Potency turn out when `CCN(CC)CCCNC(=O)c1cc2c(-c3ccc(Cl)cc3)nn(C)c2s1` was run?
**A.** The Potency was inconclusive: 251 µM [inhibitor, partial curve].

**Q.** With `Cc1ncc(CO)c2cc(-c3nnc(Nc4ccc5c(c4)OCO5)s3)c(=O)oc12` as the molecule, how does the Potency read?
**A.** Its Potency is inconclusive: 35.5 µM [quencher, side channel, partial curve, poor fit].

**Q.** For `Cn1c(Sc2ccc(C(=O)O)cc2[N+](=O)[O-])nnc1-c1ccccc1`, which Potency is on record?
**A.** Its Potency is inconclusive: 14.1 µM [quencher, side channel, partial curve].

**Q.** For `CCOc1ccc2nc(NC(=O)c3cnccn3)sc2c1`, which “activity change, negative = inhibition” value is on record?
**A.** The value was inactive: -1.16%.

**Q.** With `CCOC(=O)c1ccc(NC(=O)Nn2cnnc2)cc1` as the molecule, how does the Potency read?
**A.** The Potency was inconclusive: 63.1 µM [inhibitor, single point].

**Q.** How did the “activity change, negative = inhibition” value turn out when `O=C(/C=C/c1cccc(Br)c1)c1ccc2c(c1)OCO2` was run?
**A.** The value was inactive: 1.33%.

**Q.** How did the “activity change, negative = inhibition” value turn out when `Clc1ccc(C2=Nn3c(Cn4nnc5ccccc54)nnc3SC2)cc1` was run?
**A.** The value was inactive: -6.51%.

**Q.** Which Potency does the source give for `CN(C)/C=C/C(=O)/C=C/c1ccc(Cl)cc1` here?
**A.** Its Potency is inconclusive: 22.4 µM [quencher, side channel, single point].

**Q.** How did the Potency turn out when `O=C(OCC(=O)N1CCN(C(=O)c2ccco2)CC1)c1cc(=O)c2ccccc2o1` was run?
**A.** Its Potency is inconclusive: 15.8 µM [quencher, side channel, partial curve].

**Q.** `O=C1NC(SCCCF)=N/C1=C/c1ccc(-n2cncn2)cc1` was tested. Which Potency did it give?
**A.** Its Potency is inconclusive: 3.55 µM [quencher, side channel, partial curve].
